Experimental data: PubChem BioAssay AID1508623 (National Center for Advancing Translational Sciences (NCATS), 2021)
The campaign covered roughly 48,000 compounds. About 450 (0.94%) were called active. This list was built around the results that the source calls inconclusive (neither active nor inactive); the mix of calls is not that of the screen. Calls come from the whole dose curve; as a rule, active = well fitted inhibition curve with a large enough effect; inconclusive = small, poorly fitted or top-dose-only effect; inactive = no such curve, though single readings can be large or run the other way. Potencies of inconclusive entries are doubtful fits and often do not repeat.

Test: Primary qHTS for Identification of Small Molecule Inhibitors of Huntingtin Promoter Activity; note: nearly all actives have a fitted effect of over 50% in size
Details: HEK293 HTT promoter firefly luciferase reporter (activity 0% = vehicle and -100% = no light), 24 h; activity change, negative = inhibition: at 57.5 µM (top of the series)
In short: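 Firefly luciferase signal from promoter-reporter HEK293 cells was scaled between vehicle (0%) and zero RLU (-100%). Compounds were tested at final concentrations of up to 57.5 uM over 24 h at 37 degrees C. PTC124 at 50 uM final served as control inhibitor.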
Potency is the fitted concentration of half-maximal effect; tags give direction and shape of the fitted curve.

Structure (SMILES) | Potency | activity change, negative = inhibition
Cc1cc(Br)cc(C)c1NC(=O)c1cnc2ccccn2c1=O | inactive | –
COc1cccc(NS(=O)(=O)c2ccc3[nH]c4c(c3c2)CCCCCC4)c1 | inconclusive: 22.4 µM [inhibitor, partial curve] | –
COc1ccc(-c2onc(C)c2C)cc1S(=O)(=O)N1CCc2ccccc21 | inconclusive: 39.8 µM [inhibitor, single point] | –
CCOC(=O)c1ccc(NC(=O)CC2Nc3cccc4cccc(c34)NC2=O)cc1 (stereo not drawn) | inconclusive: 20 µM [inhibitor, single point] | –
COc1ccc(C2=CC(c3ccccc3Cl)n3nc(-c4ccc(C)cc4)nc3N2)cc1 (stereo not drawn) | inconclusive: 20 µM [inhibitor, partial curve, poor fit] | –
CCc1ccc(-n2c(SCc3nc(-c4cc(OC)ccc4OC)no3)nnc2-c2ccccc2)cc1 | inconclusive: 28.2 µM [inhibitor, single point] | –
CCc1ccc(CNC(=O)c2ccc(CS(=O)c3ccc(Br)cc3)o2)cc1 (stereo not drawn) | inconclusive: 35.5 µM [inhibitor, single point] | –
COc1ccc(-c2nc3ccccc3s2)cc1NC(=O)c1ccc(C#N)cc1F | inactive | –
CC(C)c1ccc(NC(=O)c2ccc3oc(=O)c(S(=O)(=O)c4ccc(F)cc4)cc3c2)cc1 | inconclusive: 28.2 µM [inhibitor, partial curve, poor fit] | –
CCOc1ccc(S(=O)(=O)NCCc2csc3nc(-c4ccc(OC)c(OC)c4)nn23)cc1 | inactive | –
COc1ccc(C(=O)Nc2ccc(N3CCN(c4ccccc4)CC3)c(C(=O)O)c2)cc1 | inactive | –
CCOc1ccc(CCNC(=O)C(CC(C)C)N2Cc3ccccc3C2=O)cc1OCC (stereo not drawn) | inconclusive: 28.2 µM [inhibitor, partial curve] | –
CCOc1ccc(NC(=O)CCc2nc3cccnc3n2Cc2ccc(OC)cc2)cc1 | inconclusive: 28.2 µM [inhibitor, single point] | –
Clc1ccc(Nc2nc(-c3ccccc3)c3ccccc3n2)c(Cl)c1 | – | inactive: -6.87% [at 11.5 µM]
CC(C)c1ccc(NC(=O)C2CCN(S(=O)(=O)c3ccc(Br)s3)CC2)cc1 | inconclusive: 25.1 µM [inhibitor, partial curve, poor fit] | –
Cc1ccc(S(=O)(=O)c2nnn3c2nc(NCc2ccccc2)c2sccc23)cc1 | inactive | –
COc1ccc2c(c1)CCc1c(C(=O)Nc3cnn(Cc4ccc(Cl)cc4Cl)c3)noc1-2 | inactive | –
CN1C[C@H](C(=O)N[C@]2(C)O[C@@]3(O)[C@@H]4CCCN4C(=O)[C@H](Cc4ccccc4)N3C2=O)C[C@@H]2c3cccc4[nH]cc(c34)C[C@H]21 | inactive | –
